The campaign covered roughly 1,000 compounds. About 360 (36%) were called active.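 The calls were made as follows: active = Fitted curve of melting temperature shift crosses the 1.0 threshold at or below the sample's highest valid tested concentration; inconclusive = Flat fit with activity 30 to 70, or invalid fit; inactive = Opposite direction, flat within 30, or no crossing.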 This part holds few or none of the hits.

The target of the assay is Fibroblast growth factor 22 (Homo sapiens) (UniProt Q9HCT0). Description: FGF22 ligand-induced thermal stabilization – biophysical, thermal shift, cherry-pick, FGF22 synaptogenesis inhibitor project, dose response (AID 687022). Also: reference of the scale not given here. The conditions noted are these: recombinant FGF22 thermal shift, SYPRO orange melting; at 38 µM (top of the series) unless noted.
Sequence of UniProt Q9HCT0 (Q9HCT0 whole entry, looked up): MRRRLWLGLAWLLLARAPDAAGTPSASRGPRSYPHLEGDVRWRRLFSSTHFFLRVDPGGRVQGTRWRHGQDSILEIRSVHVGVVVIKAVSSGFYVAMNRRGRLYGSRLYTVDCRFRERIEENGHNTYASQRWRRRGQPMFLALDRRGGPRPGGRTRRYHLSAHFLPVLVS
For the compound `CN1C(=O)c2cc(NC(=O)Cc3ccccc3)ccc2OC[C@@H]2O[C@H](CC(=O)O)CC[C@H]21`, the Tm shift activity is inactive: -0.126%.
For `COc1ccc(-c2cc(=O)oc3cc(OCC(=O)N[C@@H](Cc4c[nH]c5ccccc45)C(=O)O)ccc23)cc1` the value was inactive: 0.539%; for `CCOC(=O)C1CCN(C(=O)CNC(=O)c2nn(-c3ccc(OC)cc3OC)c(=O)c3ccccc23)CC1`, inactive: 0.053%; for `CCOC(=O)N1CCc2c(sc(NC(=O)C3COc4ccccc4O3)c2C(N)=O)C1` (configuration not stated), inactive: -0.029%.
Regarding `O=C(Nc1ccccc1Cl)N1[C@H](CO)[C@@H]2c3ccccc3NC[C@@H]21`, the Tm shift activity is inactive: -0.115%.
Regarding `O=C(Nc1cccc(-c2cnc3ccccc3n2)c1)c1ccncc1`, the Tm shift activity is inactive: 0.116%.
For `C[C@H]1CN([C@@H](C)CO)C(=O)CCCn2cc(nn2)CO[C@@H]1CN(C)Cc1cccc(C(=O)O)c1` the value was inactive: -0.132%; for `C[C@H](CO)N1C[C@H](C)[C@@H](CN(C)S(=O)(=O)c2ccccc2)Oc2ccc(NS(=O)(=O)c3cn(C)cn3)cc2C1=O`, inactive: -0.218%; for `COc1ccccc1N(C)S(=O)(=O)c1ccc(C(=O)Nc2ccc(C(N)=O)cc2)cc1`, inactive: 0.212%.
The figure for `CC(=O)NC(Cc1c[nH]c2ccccc12)C(=O)NCCc1ccccn1` (configuration not stated) is inactive: 0.026%; for `O=[N+]([O-])c1ccc2oc(/C=C/c3ccc(O)cc3)nc2c1` it is inactive: -0.179%; for `C[C@H]1CN([C@@H](C)CO)S(=O)(=O)c2ccc(C#Cc3ccccc3F)cc2O[C@@H]1CN(C)C(=O)Cc1cccnc1` it is inactive: 0.102% [at 42 µM].
The figure for `N#CCSc1n[nH]c2nc3c(c(=O)n12)C1(CCCCC1)Cc1ccccc1-3` is inactive: 0.19%; for `C[C@H](CO)N1C[C@H](C)[C@H](CN(C)S(=O)(=O)c2ccc(F)cc2)Oc2ccc(NC(=O)c3ccncc3)cc2C1=O` it is inactive: -0.057%; for `CN1CCN(C(=O)C[C@H]2C=C[C@H](NC(=O)c3ccc4c(c3)OCO4)[C@H](CO)O2)CC1` it is inactive: 0.059% [at 42 µM].
`C/C=C/c1ccc([C@H]2[C@@H](CO)N(C(=O)CC)C23CN(C(=O)c2ccccc2)C3)cc1`: the Tm shift activity is inactive: -0.234%.
The figure for `COCC(=O)N(C)C[C@@H]1Oc2cc(C#Cc3ccccc3)ccc2S(=O)(=O)N([C@@H](C)CO)C[C@H]1C` is inactive: 16.2% [at 42 µM]; for `Cc1ccc(S(=O)(=O)Nc2ccc3c(c2)CC(=O)N([C@H](C)CO)C[C@@H](C)[C@H](CN(C)C(=O)Nc2ccccc2)O3)cc1` it is inactive: -0.162%.
Take `CC(C)C#Cc1ccc([C@H]2[C@@H](CO)N3C(=O)CN(C(=O)C4CCCCC4)C[C@@H]23)cc1`: the Tm shift activity is inactive: -0.12%.
The figure for `O=C(N[C@@H]1CC[C@H](CC(=O)N2CCN(c3ccccc3)CC2)O[C@@H]1CO)c1ccccc1` is inactive: 0.093% [at 42 µM]; for `Cc1ccc(S(=O)(=O)N(C)C[C@H]2Oc3ncc(Br)cc3C(=O)N([C@@H](C)CO)C[C@H]2C)cc1` it is inactive: -0.244% [at 42 µM]; for `COc1cc(/C=C2\CCn3c2nc2cc(C(=O)O)ccc2c3=O)ccc1OC(F)F` it is inactive: 0.063% [at 5 µM].
For `NC(c1ccc(F)c(F)c1)c1nc(-c2cncnc2)cs1` (configuration not stated) the value was inactive: 0.033%; for `COc1ccc(N=NC2C(=O)N(c3ccccc3)N=C2C)cc1` (configuration not stated), inactive: -0.121%; for `CNC(=O)C[C@@H]1CC[C@@H]2[C@@H](COc3ccc(NS(=O)(=O)c4ccccc4C)cc3C(=O)N2C)O1`, inactive: -0.276% [at 42 µM].
For `O=C(CN1CCCC1)Nc1ccc(OC(F)(F)F)cc1` the value was inactive: 0.137%.
On to `Cc1ccccc1-c1ccc([C@H]2[C@@H](CO)N3CCCCN(Cc4cccnc4)C[C@H]23)cc1`, for which the Tm shift activity was inactive: -0.108% [at 42 µM].
For the compound `O=C(C[C@H]1CC[C@H]2[C@@H](COC[C@H](O)CN2S(=O)(=O)c2cccc(Cl)c2)O1)Nc1ccccc1`, the Tm shift activity was inactive: -0.014% [at 42 µM].
For `CCC(C)NS(=O)(=O)c1ccc(S(=O)(=O)N2CC=C(c3ccc(F)cc3)CC2)cc1` (configuration not stated) the value was inactive: 0.017%.
For `CC(C)NC(=O)Nc1ccc2c(c1)C(=O)N([C@H](C)CO)C[C@@H](C)[C@@H](CN(C)C(=O)Nc1ccccc1)OCCCC[C@@H](C)O2` the value was inactive: -0.149%.
For the compound `COc1cc(NS(=O)(=O)c2ccc(NS(=O)(=O)c3ccc(NC(C)=O)cc3)cc2)nc(OC)n1`, the Tm shift activity is inactive: 0.392%.
The figure for `CCNC(=O)C[C@H]1CC[C@@H]2[C@H](COC[C@H](O)CN2C(=O)C2CCOCC2)O1` is inactive: 0.078%; for `OC[C@@H]1[C@H](c2ccc(-c3cccnc3)cc2)[C@H]2CN(Cc3ccccn3)CCCCN12` it is inactive: 0.193%; for `COc1ccccc1S(=O)(=O)N(C)C[C@@H]1Oc2cc(C#CCC(C)C)ccc2S(=O)(=O)N([C@@H](C)CO)C[C@H]1C` it is inactive: 0.178% [at 42 µM].
For `O=C(O)c1[nH]c2ccc(Br)cc2c1CCN1C(=O)c2cccc([N+](=O)[O-])c2C1=O` the value was inactive: -0.205%; for `CC(C)C[C@@H](CN(C)N=O)N(C[C@H](Cc1ccccc1)N(CCc1ccccc1)N=O)N=O`, inactive: 0.389%; for `Cc1ccc(S(=O)(=O)N2C[C@H](O)COC[C@H]3O[C@H](CC(=O)NCc4ccc(Cl)c(Cl)c4)CC[C@@H]32)cc1`, inactive: -5.17% [at 42 µM].
For `C[C@@H]1CN([C@H](C)CO)S(=O)(=O)c2ccc(C3=CCCCC3)cc2O[C@H]1CN(C)C(=O)CN(C)C` the value was inactive: -0.023% [at 42 µM]; for `COC(=O)[C@]1(C)N[C@H](c2ccc(-c3ccccc3)cc2)[C@@H]2C(=O)N(C)C(=O)[C@@H]21`, inactive: -0.021%.
As for `O=C1C=CCCN1C(=O)/C=C/c1ccc(F)cc1`, the Tm shift activity was inactive: -0.322%.
For `Cc1ccc(S(=O)(=O)N[C@@H]2C=C[C@@H](CC(=O)N3CCc4ccccc4C3)O[C@@H]2CO)cc1` the value was inactive: -0.018%; for `CC(C)NC(=O)Nc1ccc2c(c1)C(=O)N([C@@H](C)CO)C[C@@H](C)[C@@H](CN(C)C(=O)Nc1ccccc1)OCCCC[C@@H](C)O2`, inactive: 0.051%; for `CC(=O)Nc1ccc2nc(NC(=O)COc3ccc(C)cc3)sc2c1`, inactive: 0.473%.
The figure for `OC[C@@H]1[C@@H](c2ccc(-c3cccnc3)cc2)[C@H]2CN(Cc3ccccn3)CCCCN12` is inactive: -0.124%; for `CC(=O)c1cccc(NC(=O)C2CCCN2S(=O)(=O)c2cccs2)c1` (configuration not stated) it is inactive: 0.238%; for `CCc1nnc(NC(=O)CN2CCN(Cc3ccc(C)cc3)CC2)s1` it is inactive: -0.143%.
For `c1ccc(NCc2ccccn2)cc1` the value was inactive: 0.047%.
`CC(=O)N(C)C[C@@H]1Oc2ncc(C#CC(C)(C)O)cc2C(=O)N([C@@H](C)CO)C[C@H]1C`: the Tm shift activity is inactive: -0.011%.
The figure for `O=C(NC1CCCCC1)N1CC(=O)N2[C@H](C1)[C@@H](c1ccc(-c3cccc(F)c3)cc1)[C@@H]2CO` is inactive: -4.11%; for `CC(OC(=O)c1ccccc1)C(=O)NCCC1=CCCCC1` (configuration not stated) it is inactive: -0.183%.
The figure for `O=C(C[C@@H]1CC[C@H]2[C@@H](COC[C@@H](O)CN2C(=O)c2ccc(F)cc2)O1)NCc1cccc(F)c1` is inactive: -0.491%.
For `O=C(NCC1CCCCC1)c1cccnc1Cl` the value was inactive: -0.036%.
Take `O=C(COc1ccc2c(c1)oc(=O)c1ccccc12)NC(Cc1ccc(Cl)cc1)C(=O)O` (configuration not stated): the Tm shift activity is inactive: 0.527% [at 5 µM].
For `O=C(Nc1ccsc1C(=O)O)c1cccc(C(F)(F)F)c1` the value was inactive: -0.203%.
For `Cc1ccc(C)c(N2CCN(C(=O)C34CC5CC(C3)CC(n3nnc(C)n3)(C5)C4)CC2)c1` the value was inactive: -0.282%; for `OC[C@@H]1[C@H](c2ccc(Br)cc2)[C@@H]2CN(Cc3cncnc3)CCCCN12`, inactive: -0.264% [at 42 µM].
In the case of `OC[C@H]1[C@@H](c2ccc(-c3cccnc3)cc2)[C@@H]2CN(Cc3ccccn3)CCCCN12`, the Tm shift activity is inactive: -0.15%.
In the case of `CC(C)NC(=O)N1C[C@H]2[C@@H](c3ccccc31)[C@H](CO)N2C(=O)c1cccnc1`, the Tm shift activity is inactive: 0.104%.
The figure for `COc1ccc(S(=O)(=O)N(C)C[C@@H]2Oc3ccc(NC(=O)Nc4ccccc4)cc3CC(=O)N([C@H](C)CO)C[C@@H]2C)cc1` is inactive: -0.087% [at 42 µM]; for `CSc1ncccc1C(=O)Nc1ccc(S(=O)(=O)N2CCCC2)cc1` it is inactive: 0.298%; for `Cc1nc(Oc2ccccc2)c2ccsc2n1` it is inactive: 0.015%.
The figure for `N#C/C(=C\c1ccc(N2CCOCC2)c([N+](=O)[O-])c1)c1nc2ccccc2[nH]1` is inactive: 0.123%; for `Cn1c(=O)[nH]c(=O)c2c1nc(SCC(O)CO)n2CCCc1ccccc1` (configuration not stated) it is inactive: -0.205%.
For `C[C@@H]1CN([C@H](C)CO)C(=O)c2cc(NS(C)(=O)=O)ccc2O[C@@H](C)CCCCO[C@H]1CN(C)Cc1ccncc1` the value was inactive: -0.062% [at 42 µM].
In the case of `O=C(c1ccccc1)N1CC2(C1)[C@H](c1ccccc1)[C@H](CO)N2Cc1cc(F)ccc1F`, the Tm shift activity was inactive: 0.232% [at 42 µM].
The figure for `CC(=O)Nc1ccc2sc(C)nc2c1` is inactive: 0.077%; for `COCCN(C(=O)C(C)C)c1nnc(-c2ccc(C(C)(C)C)cc2)s1` it is inactive: -0.124%; for `Cc1noc(C)c1S(=O)(=O)Nc1ccc2c(c1)CC(=O)N([C@H](C)CO)C[C@@H](C)[C@H](CN(C)S(C)(=O)=O)O2` it is inactive: 0.04%.
For `C/C=C/c1ccc([C@H]2[C@@H](CO)N(CC3CCOCC3)C23CN(C(=O)COC)C3)cc1` the value was inactive: -0.301% [at 42 µM]; for `CO[C@@H]1CN(C)C(=O)c2ccc(NS(=O)(=O)c3ccc(Oc4ccccc4)cc3)cc2OC[C@H](C)NC[C@@H]1C`, inactive: -0.378% [at 42 µM].
The figure for `C[C@H]1CN([C@@H](C)CO)C(=O)c2cc(NS(=O)(=O)c3ccccc3)ccc2O[C@@H]1CN(C)C` is inactive: -0.047%.
Regarding `C[C@@H]1CN([C@@H](C)CO)C(=O)c2cccc(N(C)C)c2O[C@H]1CN(C)Cc1ccc(C(=O)O)cc1`, the Tm shift activity was inactive: -0.219% [at 42 µM].
Consider `CN1CCC(C)(C(=O)Nc2cccc3c2CCCC3)C1` (configuration not stated), for which the Tm shift activity was inactive: -0.072%.
Regarding `O=C(C[C@H]1C[C@@H]2c3cc(NC(=O)NC4CCCC4)ccc3O[C@@H]2[C@H](CO)O1)NCc1ccc2c(c1)OCO2`, the Tm shift activity was inactive: -0.035%.
Turning to `C[C@H]1CN([C@@H](C)CO)C(=O)c2cccc(NC(=O)Nc3ccc4c(c3)OCO4)c2O[C@H]1CN(C)S(=O)(=O)c1cn(C)cn1`, the Tm shift activity is inactive: -0.279%.
The figure for `O=C(C(=O)N1CCC(CNS(=O)(=O)Cc2ccccc2)CC1)c1cccs1` is inactive: -0.203%; for `COc1ccc(S(=O)(=O)Nc2ccc3c(c2)C(=O)N([C@@H](C)CO)C[C@@H](C)[C@@H](CN(C)C)OCCCC[C@@H](C)O3)cc1` it is inactive: -0.192% [at 42 µM]; for `Cn1cccc1/C=N/NC(=O)Cc1cccc2ccccc12` it is inactive: -0.271%.
For `COc1ccc(CN(C)C[C@H]2Oc3ccc(NC(=O)Cc4ccccc4)cc3C(=O)N([C@@H](C)CO)C[C@H]2C)cc1` the value was inactive: 0.038%.
For the compound `O=[N+]([O-])c1ccc2nc(-c3ccc(Cl)cc3)[nH]c2c1`, the Tm shift activity is inactive: 0.366%.
For `O=C(c1cccc(F)c1)N1C[C@H]2[C@@H](c3ccccc31)[C@@H](CO)N2C(=O)c1ccccn1` the value was inactive: -0.197% [at 42 µM]; for `CC(C)(CNCc1ccccc1)NS(=O)(=O)c1ccc(Cl)cc1`, inactive: -0.043%.
For the compound `COc1ccc(N2CCN(CCOc3ccc4c(C)cc(=O)oc4c3)CC2)cc1`, the Tm shift activity was inactive: -0.063%.
The figure for `O=c1ccc2cc(S(=O)(=O)Nc3ccc(Br)cc3)ccc2o1` is inactive: 0.009%.
As to `CCNc1c(NS(=O)(=O)c2ccc(Br)s2)c(=O)oc2ccccc12`, the Tm shift activity is inactive: -0.125%.
On to `CCC(=O)N(NC1=NS(=O)(=O)c2ccccc21)S(=O)(=O)c1ccc(C)cc1`, for which the Tm shift activity is inactive: -0.105%.
The figure for `O=C(NCC(=O)N(CC1CCCO1)C(C(=O)NC1CCCCC1)c1cccnc1)c1cccs1` (configuration not stated) is inactive: 0.189%.
